# Test results taken from article PMC6919601, “Identification of Plasmodium dipeptidyl aminopeptidase allosteric inhibitors by high throughput screening” (PLoS ONE, 2019).
# Out of some 110,000 compounds screened, about 230 (0.21%) showed an effect of 50% or more. Some of the results follow. Where a SMILES comes first, the peptide text is derived from it. The star is where a group is joined. Tos = Cc1ccc(S(=O)(=O)*)cc1
# Biological target: DPAP1 (Plasmodium falciparum, UniProt Q8IIJ9)
# Assay: primary screen, percent inhibition; read by cleavage of a fluorogenic dipeptide substrate; higher = more effect of the substance
# Design: species or system P. falciparum D10 trophozoite lysates; single well
# 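Also: 30 min substrate incubation versus DMSO and 10 µM JCP410 controls.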
# Chain of DPAP1 (Q8IIJ9 whole entry, looked up): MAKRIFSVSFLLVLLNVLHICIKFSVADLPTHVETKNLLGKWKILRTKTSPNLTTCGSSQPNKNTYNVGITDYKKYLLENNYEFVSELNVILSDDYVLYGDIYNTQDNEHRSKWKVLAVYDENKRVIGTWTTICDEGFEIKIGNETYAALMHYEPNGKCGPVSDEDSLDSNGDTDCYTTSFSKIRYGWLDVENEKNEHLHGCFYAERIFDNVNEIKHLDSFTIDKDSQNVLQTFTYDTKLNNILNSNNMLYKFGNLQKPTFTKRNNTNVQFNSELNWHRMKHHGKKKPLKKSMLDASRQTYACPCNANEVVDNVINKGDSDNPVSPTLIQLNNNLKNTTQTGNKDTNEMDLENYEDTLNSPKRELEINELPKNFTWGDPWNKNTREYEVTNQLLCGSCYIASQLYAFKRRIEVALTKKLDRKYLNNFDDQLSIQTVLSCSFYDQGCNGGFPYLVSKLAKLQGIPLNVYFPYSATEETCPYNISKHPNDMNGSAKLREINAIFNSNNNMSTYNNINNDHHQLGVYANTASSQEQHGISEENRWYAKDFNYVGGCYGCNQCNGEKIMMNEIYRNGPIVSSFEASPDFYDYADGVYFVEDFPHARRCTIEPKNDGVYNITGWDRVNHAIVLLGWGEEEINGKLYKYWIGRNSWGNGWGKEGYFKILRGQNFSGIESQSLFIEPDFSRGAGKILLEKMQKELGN
row,SMILES,% Inhibition @ 10 uM
1,COc1cc(C)cc2oc(=O)c(CC(=O)NCc3ccc(C)cc3)c(C)c12,-0.808%
2,CCOC(=O)N1CCN(C(=O)Cc2cn(C)c3ccccc23)CC1,85.9%
3,CCc1ccc(OCC(=O)N(Cc2ccc(OC)cc2)C2CCS(=O)(=O)C2)cc1 (centres unmarked),-2.98%
4,CCOC(=O)N1CCN(C(=O)C2CCN(Cc3nc(-c4ccccc4C)oc3C)CC2)CC1,-6.64%
5,Oc1ccc(Cl)cc1CN1CCCCCCC1,-3.85%
6,CCCc1[nH]nc2c1C(c1cc(OC)ccc1OC)C(C#N)=C(N)O2 (centres unmarked),0.746%
7,CC(C)CCNC(=O)C1CCN(C(=O)N(C)C)CC1,2.05%
8,CCOC(=O)c1c(NC(=O)CN2CCCCCC2)sc2c1CCN(C(=O)OCC)C2,9.47%
9,Cn1cc(S(=O)(=O)N2CCOCC2)cc1C(=O)Nc1cccnc1,-0.398%
10,CC1CCN(c2cnnc3c(Cl)cccc23)CC1,2.42%
11,N#CC1=C(N)Oc2[nH]nc(-c3ccc4c(c3)OCO4)c2C1c1ccc(C(F)(F)F)cc1 (centres unmarked),5.55%
12,C=CCSC1=C(C#N)C(c2ccc(OCC)cc2)CC(=O)N1 (centres unmarked),-0.769%
13,O=C(NCc1ccccc1Cl)c1cc(=O)nc2sc(-c3cccs3)nn12,-3.94%
14,O=[N+]([O-])c1ccc(Nc2ccc(O)cc2)c2nonc12,4.08%
15,COc1ccc(-n2c(S)nnc2-c2cc(C(C)(C)C)[nH]n2)cc1,-2.91%
16,COc1ccc(C(=O)O/N=C(\N)CC(N)=O)cc1,6.07%
17,N#CCNC(=O)[C@H](Cc1ccsc1)NC(=O)OCc1ccccc1,-5.21%
18,CSc1nn2c(=O)cc(CSc3nnc(N)s3)nc2s1,2.74%
19,O=C(O)CCC(=O)N1N=C(c2ccc(Br)cc2)CC1c1ccccc1F (centres unmarked),7.97%
20,Cc1[nH]c2ccc(C(=O)NCCN3CCCCCC3)cc2c1C,7.43%
21,CCOC(=O)c1cc2c(=O)n3ccccc3nc2n(Cc2ccco2)/c1=N/C(=O)c1ccccc1F,5.85%
22,COCCN1C(=O)c2oc3ccccc3c(=O)c2C1c1ccc(O)c(OC)c1 (centres unmarked),0.628%
23,Cc1ccc(S(=O)(=O)NC(Cc2ccccc2)C(=O)NC(CCCN=C(N)N)C(=O)O)cc1 (stereo not drawn) (Tos-Phe-Arg-OH; configuration not given here),2.03%
24,O=S(=O)(c1cc(Cl)ccc1Cl)N1CCN(c2ccccc2)CC1,2.46%
25,O=[N+]([O-])c1ccc(-c2cnc(-c3ccc(Br)cc3)nc2)cc1,-0.351%

row,SMILES,% Inhibition @ 10 uM
1,CCCCC(=O)Nc1cc(Cl)c(Cl)cc1NCC,-5.9%
2,Cc1ccc(CNC(=O)CCNS(=O)(=O)c2ccc3nc(O)ccc3c2)cc1,1.39%
3,c1ccc2c(c1)ncc1cccn12,-0.0953%
4,O=C(NCCN1CCCCC1)Nc1cccc2ccccc12,-0.292%
5,CCc1cc(-c2[nH]nc(C)c2-c2nc3ccccc3s2)c(O)cc1O,-4.58%
6,CCN1CCN(C(c2cccs2)C(C)NC(=O)c2cc(OC)c(OC)c(OC)c2)CC1 (centres unmarked),3.96%
7,Cc1ccc(-c2c(C#N)c(N)nc3c2CC(C)CC3)o1 (centres unmarked),3.72%
8,COc1ccc(-c2onc(C)c2C)cc1S(=O)(=O)N1CCN(C)CC1,-2.25%
9,CCOc1ccc(Sc2cc(C(=O)NC(C)C)c3ccccc3n2)cc1,-3.58%
10,O=C(NCCCN1CCCC1=O)C1CCC(CNS(=O)(=O)c2ccc(Cl)cc2)CC1 (centres unmarked),3.93%
11,Cc1cc(C(=O)NC2CC2)c2ccccc2n1,-0.519%
12,O=c1c2ccccc2cnn1CCOc1ccccc1,-1.82%
13,O=C(O)CCC(=O)Nc1ccc(Oc2ccc(Cl)cc2)cc1,-3.19%
14,CCOC(=O)c1cnc2c(C(=O)OC)cnn2c1O,1.02%
15,CC(=O)N(CN1C(=O)c2ccccc2C1=O)c1ccc(C)c(Cl)c1,-4.86%
16,COc1ccc2c(CNCCCc3ccccc3)c(C(=O)O)n(Cc3ccc(F)cc3)c2c1,0.16%
17,CCOC(=O)c1ccc(CSc2nncn2N)o1,-1.26%
18,CCCN(CCC)S(=O)(=O)c1ccc(N2CCCC2=O)c(NC(=O)OC(C)C)c1,-2.72%
19,CCOc1cc(C2c3c(oc4ccc(C)cc4c3=O)C(=O)N2Cc2ccc3c(c2)OCO3)ccc1O (centres unmarked),-5%
20,CSc1ccc(CCNC(=O)C2CCN(c3nn4cc(-c5ccc(C)cc5)nc4s3)CC2)cc1,-0.878%
21,Cc1ccccc1CN1CCN(CC(=O)NCc2cccs2)C1=O,2.02%
22,c1ccc2c(Nn3cnnc3)c3ccccc3nc2c1,4.61%
23,CCC(=O)NC1=C(C#N)C2(CCCCC2)Cc2ccccc21,-4.64%
24,CN(c1ccccc1)S(=O)(=O)c1ccc(Cl)c(C(=O)Nc2cccc(C(=O)O)c2)c1,-6.83%
25,C=CCOc1ccc(/C=c2\sc3nc(-c4ccc(C)cc4)nn3c2=O)cc1,2.17%
